In experiment [1] the test system is Psen2 N141I KI model mice (KI/+). Kind of experiment: Y-maze spatial memory, LPS-injected mice. As to conditions: didanosine 5 mg/kg.
Experiment [2] has as its system wild-type mice. Kind of experiment: Y-maze spatial memory after four weeks of didanosine. Format: in vivo, mouse. As to conditions: WT mice, didanosine 0.5 mg/kg/day i.p., five days per week for four weeks.
The subject of experiment [3] is Psen2 N141I KI model mice (KI/+). Kind of experiment: Serum IL-6 after low-concentration LPS injection (ELISA). As to conditions: didanosine 5 mg/kg i.p., LPS 0.35 μg/kg i.p. after 4 hours, serum 24 hours after didanosine. On the technique in general: ELISA stands for enzyme-linked immunosorbent assay.
The subject of a further experiment is 5×FAD mice. Put plainly: Y-maze spatial memory after four weeks of didanosine.
Experiment [4] deals with wild-type mice. Put plainly: Y-maze spatial memory, LPS-injected mice. The following applies: WT mice, didanosine 5 mg/kg, LPS 0.35 μg/kg, Y-maze 24 hours after didanosine.
The subject of another experiment is wild-type mice (WT). Put plainly: Serum IL-6 after low-concentration LPS injection (ELISA). As to conditions: didanosine 5 mg/kg i.p., LPS 0.35 μg/kg i.p. after 4 hours, serum 24 hours after didanosine.

Each structure is given as a SMILES string.

For the compound `O=c1[nH]cnc2c1ncn2[C@H]1CC[C@@H](CO)O1` [didanosine, 9-[(2R,5S)-5-(hydroxymethyl)oxolan-2-yl]-1H-purin-6-one], the Alternation percent in experiment [1] (KI/+ mice, LPS 0.35 μg/kg, Y-maze 24 hours after didanosine) stood at 75.977 ± 5.160%; with wild-type mice [2] it was 76.667 ± 6.489%; with 5×FAD mice (6-month-old 5xFAD mice, didanosine 0.5 mg/kg/day i.p., five days per week for four weeks), 68.667 ± 4.096%; in the experiment on wild-type mice [4], 75.512 ± 5.919%. The “Memory performance (in words)” value in experiment [1] (LPS-injected Psen2 N141I KI mice) was “recovered the decreased memory performance”. The “IL-6” value in experiment [3] is on record as 297.484 ± 25.155 pg/mL; in the experiment with wild-type mice (WT), 312.679 ± 68.423 pg/mL. In addition, the “Memory decline (in words)” value in the experiment on 5×FAD mice (5×FAD (6 month) mice, didanosine 0.5 mg/kg/day) is “recovery from the memory decline”.
